Hit rate of the full screen: of about 48,000 compounds, about 450 (0.94%) were called active. Inconclusive results (about 19%) are left out. The call rests on the fitted dose curve; in most records, active means well fitted inhibition curve with a large enough effect; inconclusive means small, poorly fitted or top-dose-only effect; inactive means no such curve, though single readings can be large or run the other way. The list shows a part of the results.
Assay: Primary qHTS for Identification of Small Molecule Inhibitors of Huntingtin Promoter Activity; further: nearly all actives have a fitted effect of over 50% in size
Conditions: HEK293 HTT promoter firefly luciferase reporter (activity 0% = vehicle and -100% = no light), 24 h; series mostly up to 57.5 µM; activity change, negative = inhibition: at the top concentration
Summary of the method: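 HEK293 luciferase promoter-reporter cells (2,500/well) plated 24 h, then compounds added at up to 57.5 uM final for 24 h at 37 °C. Firefly luminescence by Dual-Glo, normalized to vehicle (0%) and zero RLU (-100%).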

Activity change, negative = inhibition, inactive:
CC1C(=O)Nc2ccc(S(=O)(=O)Nc3ccccc3Br)cc2NC1=O (centres undefined) -7.72%, CC(C)CCNC(=O)c1ccc(Cn2c(SCC(=O)NC(C)C)nc3ccccc3c2=O)cc1 -5.48%, Cc1cc(NC(=O)c2ccc(-c3ccc(Br)cc3)o2)cc(-c2nc3ncccc3o2)c1O -8.98%, Cc1c(-c2ccccc2)c(=O)oc2c(CN3CCN(C)CC3)c(O)ccc12 -12.7%, Cc1ccc2nc(Cl)c3cc(C(=O)NCCCN4CCC(C)CC4)sc3c2c1 2.35%, COc1ccc2c(c1)c1c(c(=O)n(-c3ccccc3)c(=O)n1CC(=O)Nc1ccc(F)cc1)n2C -10.4%, COc1ccc(N2CC(NC(=O)c3ccc4c(c3)OCO4)CC2=O)cc1OC (centres undefined) -11.8%, CCCCN(C)CC(O)Cn1cc(/C=C/C(=O)c2ccc(OC)c(OC)c2)c2ccccc21 (centres undefined) -4.82%, CCCn1ccc2c(OCC(=O)NCc3ccc(F)cc3)cccc2c1=O -10.7%, COc1ccc(CNC(=O)Cn2nnc(-c3ccccc3F)n2)cc1 -5.25%, CCc1cc2c(cc3c(=O)n(CC(=O)N4CCCCC4)nc(CC)n32)s1 -14%, CC(C)(C)C(=O)NCCCC(=O)O 11.7%, COc1ccc(Cl)cc1C(=O)Nc1ccc2oc(-c3ccc(C(C)(C)C)cc3)nc2c1 -3.18%, CCCSC1=NC2(CCN(C(=O)NC3CCCCC3)CC2)N=C1c1ccccc1 -18.4%, NC12CC3CC(CC(C3)C1)C2, CC(C)c1nnc(NC(=O)c2nc(SCc3ccc(F)cc3)ncc2Cl)s1 -20.6%, CCCSc1ncc(Cl)c(C(=O)Nc2sc3c(c2C(=O)NCC)CCCC3)n1 -12%, CSc1ncc(Cl)c(C(=O)Nc2nc3ccc(F)cc3s2)n1 -7.22%, CCN1CCN(C(=O)c2ccc3c(c2)N(Cc2ccccc2)C(=O)c2ccccc2S3=O)CC1 (centres undefined) -14.1%, COc1ccc(OC)c(-c2nc(C(N)=O)c3c(n2)n(-c2ccc4c(c2)OCO4)c(=O)n3C)c1 -13.2%, Cc1nn(CCCC(=O)NCc2cccc(F)c2)c(=O)c2nn(-c3ccccc3)c(C)c12 -10.8%, Cc1ccc(NC(=O)CN(C)S(=O)(=O)c2ccc3c(c2)CCC(=O)N3)c(C)c1 -10.3%, Cc1ccc(NC(=O)Cn2nc(-c3ccc(F)cc3)c3cnc4ccc(C)cc4c32)cc1 8.98%, CCCN1CCN(c2ncc3c(n2)CCN(Cc2ccc(OC)c(OC)c2OC)C3)CC1 -15.9%, COc1ccccc1-c1noc(-c2ccc(N(C)Cc3ccccc3)c([N+](=O)[O-])c2)n1 -11.7%, COc1ccccc1C(=O)c1c(N)c(-c2nc(-c3ccccc3)cs2)c2ccccn12 -12.7%, CCCCN(CC)C(=O)CCn1c(=O)c2cccn2c2cccnc21 1.03%, CCCCNC(=O)CN1C(=O)CSc2ccc(S(=O)(=O)N3CCC(C)CC3)cc21 -9.74%, CC(=O)c1cccc(N(C(=O)Cn2nnc3ccccc32)C(C(=O)NCc2ccccc2)c2ccc(F)cc2)c1 (centres undefined) -8.08%, Cc1onc(-c2ccc(Br)cc2)c1C(=O)Nc1ccc(Br)cc1F 14.1%, COc1ccc(-n2c(SCC(=O)Nc3nnc(C)s3)nc3c([nH]c4ccccc43)c2=O)cc1 -20%, CC(C)N(C(=O)c1cc2c(Cl)nc3ccccc3c2s1)C1CCCCC1 3.01%, COc1cccc(CNc2ncc(-c3ccc(Br)cc3)n2C)c1 -20.1%, Cc1cccc(C(=O)Nc2cc3c(cc2N2CCOCC2)n(C)c(=O)n3C)c1 4.03%, CCOC(=O)c1ccccc1Nc1cc(C)nc2nc(-c3ccco3)nn12 -16.5%, O=C(NCCCN1CCN(c2ccccc2)CC1)c1nnc(Cc2ccc(F)cc2)o1 -28.9%, Nc1c(-c2nc(-c3ccccc3)cs2)c2ccccn2c1C(=O)c1ccc2c(c1)OCO2 -10.3%, CCOc1ccc(NC(=O)Cn2cc(C(=O)c3ccc(C)cc3)c(=O)c3cc4c(cc32)OCCO4)cc1 -4.5%, O=C(O)CC(NS(=O)(=O)c1ccc(Br)s1)c1ccccc1 (centres undefined) 8.91%, CC1=C(C(=O)Nc2cc(C)ccc2C)C2(CCCCCC2)OC1=O 0.0374%, CC(C)OCCCN(C)C1CCN(S(=O)(=O)c2csc(C(N)=O)c2)CC1 -4.81%, COc1ccc(-n2c(C)nc3cc(C(=O)NC4CCCC4)ccc32)cc1 -22.4%, Cc1cccc(-c2nnc(SCC(=O)N3CCCc4ccccc43)o2)c1 -21.5%, CSc1cccc(NC(=O)Cn2nc(C)c3sc4ccccc4c3c2=O)c1 -21.4%, Cc1ccc(S(=O)(=O)c2nnn3c2nc(NCc2cccs2)c2sccc23)cc1C -7.87%, COC(=O)C(C)NC(=O)N1CCN(c2nnc(C)c3c(C)n(-c4ccc(Cl)cc4)nc23)CC1 (centres undefined) -8.08%, CCCCCCCCCCCCCCCC(=O)NCCO -1.27%, Cc1cccc(CS(=O)(=O)c2ncc(Cl)c(C(=O)Nc3nc4ccc(F)cc4s3)n2)c1 -10.5%, Cc1ccc(C)c(NS(=O)(=O)c2ccc3c(c2)n(C)c(=O)n3C)c1 -31.8%, CN1CCN(C2=Nc3cc(Cl)ccc3Nc3ccccc32)CC1 -27.9%, CC(C)NC(=O)N1CCC(N2CCN(Cc3ccc(F)cc3)C(=O)C2=O)CC1 3.07%, CCc1nc2onc(C)c2c(=O)n1CC(=O)O -13%, Cc1ccccc1-c1nc(CS(=O)(=O)CC(=O)Nc2cccc(C(F)(F)F)c2)c(C)o1 -31.2%, COc1ccc2c(c1)c1c(c(=O)n(Cc3ccccc3)c(=O)n1CC(=O)Nc1c(C)cccc1C)n2C -14.2%, CCn1c(SCC(=O)N2CCC(C)CC2)nnc1-c1ccccc1O -20.3%, Cc1oc(-c2cccc(Br)c2)nc1Cn1c(=O)cc(-c2ccccc2)c2c(C)nn(C)c21 8.06%, COc1ccc(N2CCN(Cc3cc(=O)oc4ccc(OC)cc34)CC2)cc1 -7.53%, CCc1ccccc1Nc1cc(C(=O)NCCc2ccccc2)c2ccccc2n1 -13.3%, COc1ccccc1NC(=O)C1=C(C)Nc2nc3ccccc3n2C1c1cccc(Br)c1 (centres undefined) -20.8%, O=C(Cn1c(=O)n(-c2ccc(F)cc2)c(=O)c2sc3ccccc3c21)NC1CCCCC1 -10.9%, CCOC(=O)c1ccc2c(c1)N(Cc1cccc(C(F)(F)F)c1)C(=O)c1ccccc1S2(=O)=O -6.92%, CCCOc1ccc(Nc2cc(C)nc(C)n2)cc1 25%, COc1ccc(OC)c(CCNc2nccn(-c3ccc(C)c(C)c3)c2=O)c1 -40.6%, O=C(NCC(c1cccnc1)N1CCOCC1)C(=O)Nc1ccc(F)cc1 (centres undefined) 29.1%, Cn1c(SCc2cccc(F)c2)nc2c([nH]c3ccccc32)c1=O -8.99%, CCCn1ccc2c(OCC(=O)Nc3ccccc3OCC)cccc2c1=O -9.94%, COc1ccc(Cn2c(=O)[nH]c3cc(C(=O)N4CCN(c5ccccc5)CC4)ccc3c2=O)cc1 -5.07%, Cc1ccc(CNC(=O)CCC(=O)N2Cc3ccccc3Oc3ncccc32)cc1 -7.85%, COc1ccc(CCNC(=O)C2CCN(c3nc4ccccc4nc3C(F)(F)F)CC2)cc1OC -2.98%, Cc1ccc(NC(=O)CN2C(=O)CSc3ccc(S(=O)(=O)N4CCCC4)cc32)c(C)c1 -17.9%, COc1ccc(NC(=O)C2=C(C)C(=O)OC23CCN(C(C)C)CC3)cc1Cl -19.3%, Cc1ccccc1NC(=O)CSc1nc2ccc(NC(=O)c3ccccc3)cc2s1 -3.36%, CC(=O)OCc1cnc(C)c2oc(=O)c(C(=O)Nc3ccc(C)cc3Cl)cc12 0.773%, COc1ccc(-c2coc3c2c(C)cc2oc(=O)c(C)c(C)c23)cc1 1.86%, COc1ccccc1CNC(=O)c1ccc2c(c1)N(Cc1cc(C)ccc1C)C(=O)c1ccccc1S2 -18.9%, CCCCNC(=O)c1cc2c(=O)n3cccc(C)c3nc2s1 8.63%, CCOc1ccc(NC(=O)Cn2cc(C(=O)c3ccc(F)cc3)c(=O)c3cc4c(cc32)OCCO4)cc1 -3.67%, COc1ccc(NC(=O)Cn2cnc3ccc(S(=O)(=O)N4CCC(C)CC4)cc3c2=O)cc1Cl -12%, CC(C)(C)OC(=O)N1CCC(c2c(C(=O)NCCN3CCCC3)cnn2-c2ccc(Cl)cc2)CC1 -3.8%, CCOc1ccc(/C=C/c2nc(C#N)c(NC3CCCCC3)o2)cc1 0.934%, CC(=O)c1cc2c(cc1N/C(=N/S(=O)(=O)c1ccccc1)c1ccc(Cl)cc1)OCO2 -8.6%, Cc1cc(C)cc(C(=O)Nc2c(C(=O)Nc3ccccc3F)oc3ccccc23)c1 -26.2%, COc1ccccc1-c1nnc(SCC(N)=O)o1 0%, CCN(CC)CCNC(=O)c1ccc(-c2nc(CS(=O)(=O)c3ccc(C)cc3)c(C)o2)cc1 -21.6% [at 11.5 µM], CC(C)c1ccc(NC(c2nnc(-c3ccccc3)o2)c2ccc(F)cc2Cl)cc1 (centres undefined) -27.9%, CCOc1ccc(OCc2ccc(C(=O)Nc3cc(OC)c(OC)c(OC)c3)o2)cc1 -13.8%, Cc1ccc(C)c(NC(=O)N(C)CCc2c(C)nn(C)c2C)c1 4.71%, COc1ccc(CCNS(=O)(=O)c2cc(-c3cc(C)no3)ccc2OC)cc1OC -16.6%, Cc1ccc(N2CC(C(=O)NCCS(=O)(=O)N3CCN(c4ccccc4)CC3)CC2=O)cc1C (centres undefined) -5.8%, CCNc1nc(N)nc(Oc2ccc(OCC(=O)OC)nn2)n1 -5.3%, CCN(CC)CCNc1ncnc2c1cnn2-c1cc(Cl)ccc1C -8.95%, CCOc1ccc(-c2nc(CNC(=O)NC3CCCCC3)c(C)o2)cc1 -12.5%, Cc1ccc(C(=O)Nc2nc3nc(C)cc(=O)n3[nH]2)cc1 -2.72%, COc1cccc(CNC(=O)CSc2nc(=O)[nH]c3c2CCC3)c1 -11.4%, CCCN(C(=O)C(=O)Nc1ccc2nc3n(c(=O)c2c1)CCCCC3)c1ccc(OCC)cc1 2.06%, CCc1nnc(NS(=O)(=O)c2ccc(N)cc2)s1 1.3%, COc1ccc(CCNc2nc3ccc(Cl)cc3n3cnnc23)cc1OC -9.35%, Cc1cccc2nc(-c3ccc(N(C)C)cc3)c(Nc3ccc4c(c3)OCO4)n12 20.1%, Cc1ccc(NC(=O)/C=C/c2ccc(Cl)cc2)c(Br)c1 1.32%

Source: PubChem BioAssay AID1508623 (National Center for Advancing Translational Sciences (NCATS), 2021)
